The results in this text go back to publication PMC4336329 (PLoS ONE, 2015).

Out of some 310,000 compounds screened, about 2,200 (0.71%) showed an effect of 50% or more. Effects have a minus sign here. The list shows a part of the results.

For this assay, the target named is human ether-à-go-go-related gene (hERG) potassium channel (human, UniProt Q12809). Briefly: primary screen, population patch clamp on CHO cells stably expressing hERG.
Sequence of human ether-à-go-go-related gene (hERG) potassium channel (Q12809 whole entry, looked up): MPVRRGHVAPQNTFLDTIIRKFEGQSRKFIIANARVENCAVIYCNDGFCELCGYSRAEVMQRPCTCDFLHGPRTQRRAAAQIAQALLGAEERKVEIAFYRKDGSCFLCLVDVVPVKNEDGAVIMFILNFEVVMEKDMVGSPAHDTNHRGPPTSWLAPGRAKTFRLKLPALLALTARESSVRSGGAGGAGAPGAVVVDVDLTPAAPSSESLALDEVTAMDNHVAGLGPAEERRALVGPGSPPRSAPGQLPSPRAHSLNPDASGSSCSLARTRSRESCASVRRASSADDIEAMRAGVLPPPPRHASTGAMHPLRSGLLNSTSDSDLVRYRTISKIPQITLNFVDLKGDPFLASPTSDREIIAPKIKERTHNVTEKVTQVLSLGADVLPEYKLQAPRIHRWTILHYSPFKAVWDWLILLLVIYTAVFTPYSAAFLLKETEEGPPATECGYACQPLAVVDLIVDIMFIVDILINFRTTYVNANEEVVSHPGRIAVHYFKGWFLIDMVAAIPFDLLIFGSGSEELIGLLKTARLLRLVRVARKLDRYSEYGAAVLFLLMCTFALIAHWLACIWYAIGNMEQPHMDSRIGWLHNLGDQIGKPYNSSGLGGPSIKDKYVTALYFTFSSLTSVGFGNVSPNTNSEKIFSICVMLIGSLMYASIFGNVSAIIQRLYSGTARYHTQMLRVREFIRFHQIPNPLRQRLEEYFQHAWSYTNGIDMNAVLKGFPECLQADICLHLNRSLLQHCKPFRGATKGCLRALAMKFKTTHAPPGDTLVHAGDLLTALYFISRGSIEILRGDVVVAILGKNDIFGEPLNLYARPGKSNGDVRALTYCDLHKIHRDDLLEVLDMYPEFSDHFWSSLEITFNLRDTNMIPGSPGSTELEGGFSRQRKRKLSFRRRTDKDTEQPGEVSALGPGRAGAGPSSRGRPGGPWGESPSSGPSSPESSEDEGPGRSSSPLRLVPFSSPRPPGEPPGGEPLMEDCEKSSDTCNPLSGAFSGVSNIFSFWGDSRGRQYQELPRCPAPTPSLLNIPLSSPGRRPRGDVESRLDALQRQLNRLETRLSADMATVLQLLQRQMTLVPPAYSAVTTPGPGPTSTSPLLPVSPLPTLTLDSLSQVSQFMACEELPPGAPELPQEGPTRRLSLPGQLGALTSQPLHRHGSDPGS
On to `COc1ccc(C(=O)C2CCN(C(=S)Nc3ccc(F)cc3)CC2)cc1`, for which the “hERG current change (%, negative = inhibition) at 1uM” value is -6.05%.

`O=C(CCS(=O)(=O)c1ccc(Br)cc1)Nc1ccccc1Cl`: the “hERG current change (%, negative = inhibition) at 1uM” value is listed as 15.9%. Turning to `Nc1nnc(COc2cccc(C(F)(F)F)c2)s1`, the “hERG current change (%, negative = inhibition) at 1uM” value amounted to 7.33%. For `Cc1ccc(CNC(=O)COC(=O)Cn2nc(C)c([N+](=O)[O-])c2C)cc1` the value was 5.2%; for `CN(CC(=O)NCc1ccccc1Cl)S(=O)(=O)c1ccc2c(c1)n(C)c(=O)c(=O)n2C`, 10.1%. Consider `COc1ccc(CN2CCNC(=O)C2CC(=O)N(C)Cc2nccn2C)cc1OC` (stereo not drawn), for which the “hERG current change (%, negative = inhibition) at 1uM” value was determined as 11%. In the case of `O=C1C(c2ccncc2)=C(O)c2ccccc21` it was 6.68%; in that of `CC(C)(C)NC[C@@H](O)COc1cccc2c1CCCC2=O.Cl`, 2.24%; in that of `Cn1/c(=N/N=C/c2ccc(N3CCOCC3)cc2)sc2ccccc21`, -8.84%.

Consider `O=C(Nc1cccnc1)c1cccc([N+](=O)[O-])c1`, for which the “hERG current change (%, negative = inhibition) at 1uM” value is listed as 8.65%. In the case of `CCn1c(C)c(C)c2cc(C(=O)NCCCN3CCCCC3)ccc21` it was 5.47%; in that of `CCOC(=O)C1CCN(Cc2cc(C(C)C)c(O)c(C(C)C)c2)CC1`, -3.27%. For `CCOc1ccc(-n2c(SCC(N)=O)nc3c(c2=O)SCC3)cc1` the value was 8.48%; for `Cl.O=C(CN1CCOCC1)NCC12CC3CC(CC(C3)C1)C2`, 9.11%; for `S=c1[nH]nc(-c2ccccc2)n1Cc1ccccc1`, 11.7%.

With `Cc1ccc(C(=O)Nc2ccc3c(c2)CCC3)o1`, the “hERG current change (%, negative = inhibition) at 1uM” value was -9.43%. Turning to `Cc1cccc(-n2ncc3c(NCCCn4ccnc4)ncnc32)c1`, the “hERG current change (%, negative = inhibition) at 1uM” value is 3.9%. For `O=[N+]([O-])/C=C1\C=CC=CN1Cc1ccc(Cl)cc1` the value was 3.51%. For `CCOc1ccc(C(O)(c2ccccc2OC)C(CN2CCCC2)c2ccccc2)cc1.Cl` (stereo not drawn) the value was 10.3%. For `COc1ccc(Br)cc1/C=N/n1c(COc2ccccc2)n[nH]c1=S` the value was 11%; for `COc1ccc(Cl)cc1NS(=O)(=O)c1cccc(C(=O)NCC2CCCO2)c1` (stereo not drawn), 5.12%. On to `CCOc1ccc(NC(=O)CN2CCCC2c2cccs2)cc1S(=O)(=O)N1CCCCC1` (stereo not drawn), for which the “hERG current change (%, negative = inhibition) at 1uM” value is reported as 4.55%. For `CCOC(=O)c1sc(S(C)=O)c2c1CCc1conc1-2` (stereo not drawn) the value was 2.38%. In the case of `COc1ccc(N=C2SC(CC(=O)Nc3ccccc3)C(=O)N2CCN2CCOCC2)cc1` (stereo not drawn) it was 3.66%. For `Nc1ccc(Cl)cc1/C(=N/O)c1ccccc1` the value was 9.73%; for `CCOc1ccc(C(=O)OCn2nnc3ccccc3c2=O)cc1OC`, 12%. Take `CC(=O)C1=C(C)NC(SCC(=O)c2ccc(Cl)cc2)=C(C#N)C1CC(C)C` (stereo not drawn): the “hERG current change (%, negative = inhibition) at 1uM” value turned out to be 7.52%. In the case of `Nc1nc(SCC(=O)c2cccs2)n[nH]1` it was 6.15%.

On to `CCCc1cc(=O)[nH]c(SCc2ccc(F)cc2)n1`, for which the “hERG current change (%, negative = inhibition) at 1uM” value is 10.1%. For `Cc1nc(C)c(CCNC(=O)c2ccccc2)s1`, the “hERG current change (%, negative = inhibition) at 1uM” value is given as 16.6%. For `CCOC(=O)c1sc(NC(=O)/C=C/c2cnn(C)c2C)c(C(=O)OCC)c1C` the value was 8.05%; for `CCOC(=O)c1sc(/N=C/N(C)C)nc1C`, 13%; for `CCOC(=O)N1CCC(N2CCN(Cc3ccc(C)o3)C(CCO)C2)CC1` (stereo not drawn), 10%. For `CNC(=O)CC1C(=O)N(c2ccc(OC)cc2)C(=S)N1NC(=O)c1cccc(F)c1` (stereo not drawn), the “hERG current change (%, negative = inhibition) at 1uM” value is 12.3%. For `O=C(CCS(=O)(=O)c1ccc(Br)cc1)NCc1ccc(F)cc1` the value was 18.8%. In the case of `CCOc1ccc(NC(=S)NCCCn2ccnc2)cc1` it was 12.1%. In the case of `O=C(COc1ccc(/C=N/NS(=O)(=O)c2ccccc2)cc1)Nc1ccccc1` it was 6.11%; in that of `COc1ccc(NC(=O)CSc2nnc(-c3ccccn3)n2-c2ccccc2)cc1OC`, 8.98%; in that of `COc1ccc(CNC(=O)CN(C)S(=O)(=O)c2ccc3c(c2)n(C)c(=O)c(=O)n3C)cc1`, 12%. Turning to `CCOC(=O)NC(Nc1sc2c(c1C(N)=O)CCCC2)(C(=O)OCC)C(F)(F)F` (stereo not drawn), the “hERG current change (%, negative = inhibition) at 1uM” value worked out at 3.99%. In the case of `CSc1ccc(C(=O)/C=C/c2ccc(N)cc2)cc1` it was 14%. With `CCCCOC(=O)NC(NCC(O)c1ccccc1)(C(F)(F)F)C(F)(F)F` (stereo not drawn), the “hERG current change (%, negative = inhibition) at 1uM” value amounted to 7.67%. In the case of `CCCCC(=O)OCC(=O)N1N=C(c2c[nH]c3ccccc23)C(O)C1c1ccc(OC)cc1` (stereo not drawn) it was 9.42%; in that of `CCNS(=O)(=O)c1ccc(C(=O)OCC(=O)N2CCCc3ccccc32)cc1`, -12.4%. For `CC1(c2ccc(OC(F)F)cc2)NC(=O)N(CC(=O)NCCC2=CCCCC2)C1=O` (stereo not drawn) the value was 1.63%; for `Cc1cc(Cl)c(OCCCN(C)C)c(Br)c1.O=C(O)C(=O)O`, -0.159%; for `Fc1ccc(-c2nc(-c3cccs3)[nH]c2-c2ccc(F)cc2)cc1`, 1.79%. For `N#CCCN(Cc1cccnc1)C(=O)Nc1ccccc1` the value was 0.734%. As to `CC1(C)CC(=O)C2=C(C1)N=C1SCCC(=O)N1C2c1cccc([N+](=O)[O-])c1` (stereo not drawn), the “hERG current change (%, negative = inhibition) at 1uM” value is -6.8%. For `COc1cc(OC)cc(C(=O)NC(=S)NNC(=O)Cc2cccs2)c1` the value was 14.5%; for `CCOc1ncccc1C(=O)NCCc1ccc(S(N)(=O)=O)cc1`, 9.47%. With `CC(C)C1N(C(=O)CN2CCCCC2)CCN1S(=O)(=O)c1ccccc1` (stereo not drawn), the “hERG current change (%, negative = inhibition) at 1uM” value worked out at 11.8%. Consider `COC(=O)C1=C(C)N(CCCC(=O)O)C(=O)NC1c1ccc(C(F)(F)F)cc1` (stereo not drawn), for which the “hERG current change (%, negative = inhibition) at 1uM” value was determined as 2.9%.

On to `CCOC(=O)N/N=C/c1c(C)nn(-c2cccc(C(F)(F)F)c2)c1Cl`, for which the “hERG current change (%, negative = inhibition) at 1uM” value was determined as 1.3%. For `COC(CNC(=O)CC1C(=O)N(Cc2ccccc2)C(C)c2nc3ccccc3n21)OC` (stereo not drawn) the value was 5.23%. In the case of `CCN1CCN(C(=O)Cn2cnc3sc(C)c(S(=O)(=O)N4CCN(c5ncccn5)CC4)c3c2=O)CC1` it was 12.4%; in that of `Cc1ccc(C)c(OCc2cc(C(=O)N3CCN(c4ccccc4C)CC3C)no2)c1` (stereo not drawn), 6.82%.
